Data reported in PubChem BioAssay AID686970 (National Center for Advancing Translational Sciences (NCATS), 2013).
The campaign covered roughly 360,000 compounds. About 6,000 (1.7%) were called active. Inconclusive results, whose numbers are uncertain, are shown with a selection of clear calls. The call rests on the fitted dose curve; in most records, active means well fitted cell-killing curve with a large enough effect; inconclusive means small, poorly fitted or top-dose-only effect, or effect the other way; inactive means flat fitted curve, though single readings scatter. No potency is given beside an inconclusive call; the fits are too rough.

test: qHTS for induction of synthetic lethality in tumor cells producing 2HG: qHTS for the HT-1080-NT fibrosarcoma cell line; details: HT-1080-NT fibrosarcoma viability, CellTiter-Glo ATP luminescence, 48 h; activity, negative = less viability: at 46.1 µM (top of the series) unless noted; further: nearly all actives have a fitted effect of over 55% in size
Description: Unbiased genomic sequencing for 22 glioma genomes found recurrent mutation of IDH1 on chromosome 2q33, a gene encoding the cytosolic isoform of IDH1 associated with the tricarboxylic acid cycle (TCA) that catalyzes the oxidative decarboxylation of isocitrate, yielding alpha-ketoglutarate and CO2 via NADP+ to NADPH conversion. Subsequent studies confirmed the recurrent IDH mutations in up to 70% of secondary gliomas and in 10% of AML cases. In addition, the somatic mutation of cancer-associated IDH1 is a point mutation resulting in various amino-acid substituents at Arginine132 (IDH1 R132), a key residue found in the enzyme's active site that when mutated, results in the loss-of-function in metabolizing isocitrate but confers a gain-of-function to produce the oncometabolite 2-hydroxyglutarate (2HG). This in effect defines IDH1 as an oncogene and provides an extraordinary opportunity to discover chemical probes against mutant IDH1 that may translate into much needed new therapies for glioma and AML patients.
This assay aims to perform a synthetic lethal screen for chemical probes specific for 2HG-producing tumor cells using matched paired cell lines (1) HT-1080-NT fibrosarcoma cell line that overproduces 2HG and (2) HT-1080-IDH1KD cell line which has IDH1 expression knocked-down. Desirable compounds are toxic to the NT fibrosarcoma cells but not to the IDH1KD cell line. The data in this AID corresponds to the results of the qHTS against the HT-1080-NT fibrosarcoma cell line.
[1] Dang L, Jin S, Su SM. IDH mutations in glioma and acute myeloid leukemia. Trends of Mol Med. 2010; 16(9): 387-97.
[2] Dang L et al. Cancer-associated IDH1 mutations produce 2-hydroxyglutarate. Nature. 2010; 465(7300):966.
NIH Molecular Libraries Probe Production Centers Network [MLPCN]
NIH Chemical Genomics Center [NCGC]
Assay Submitter (PI): Lenny Dang Ph.D., Agios Pharmaceuticals
Suspensions of trypsinized HT-1080-NT cells were dispensed into white, tissue culture-treated, solid 1536-well plates at 5uL/well (750 cells/well final concentration) in RPMI medium supplemented with 5% FBS. Plates were incubated at 37 degrees C for 2 hours, after which 23 nL of compounds or DMSO were delivered to each well using a pin tool. Plates were then incubated at 37 degrees C for an additional 48 hours. CellTiter-Glo viability reagent (Promega) was dispensed into wells (2.5uL/well) and incubated at room temperature for 10 minutes. The plates were measured on a PerkinElmer ViewLux plate reader for luminescent signal (clear filter, 1 sec exp). DMSO-treated control wells and media-only (no cells) control wells were used to normalize %Activity of identified toxic compounds; DMSO-treated wells corresponded to 0%Activity (100% viability), while media-only controls were used to normalize 100%Activity (0% viability).
Concentration-response curves were fitted to the signals arising from the resulting luminescence. The concentration-effect curves were then classified based on curve quality (r2), response magnitude and degree of measured activity, and compounds were subsequently categorized based on their curve class.
Potency means the concentration at half of the fitted maximal effect; tags describe the fitted curve by direction and shape.

Row | Compound | Potency | activity, negative = less viability
1 | CC1(C)N=C(N)N=C(N)N1c1ccc(CCCCc2ccccc2)cc1 | inconclusive [cytotoxic, full curve] | 
2 | O=C(COc1cc(F)ccc1[N+](=O)[O-])NCCCc1ccccc1 | inactive | 
3 | O=C(O)COc1ccc(/C=C2\SC(=Nc3ccccc3)N(c3ccccc3)C2=O)cc1 | inactive | 
4 | O=C(OCc1ccccc1)C1=[N+]([O-])OC(C(=O)OCc2ccccc2)C1c1c[nH]c2ccccc12 (stereo unspecified) | inconclusive [cytotoxic, single point] | 
5 | COc1ccccc1N1CCN(C(=O)C(Sc2ccccc2)c2ccccc2)CC1 (stereo unspecified) | inconclusive [cytotoxic, single point] | 
6 | Cn1nc(-c2ccccc2)cc1NC(=O)C1CCCCC1 | inactive | 
7 | Cc1ccc(-n2[nH]c(C)c(C=Nc3ccc(C)cn3)c2=O)cc1 | active: 7.94 µM | 
8 | COc1ccc(/C=N/OC(=O)Nc2ccccc2)cc1[N+](=O)[O-] | inactive | 
9 | COc1cc(C(=O)OCC(=O)Nc2ccc(C)cc2)cc(OC)c1OC | inactive | 
10 | Cc1cc(C(=O)Nc2sc3c(c2C#N)CCCC3)no1 | inconclusive [cytotoxic, single point] | 
11 | CCc1ccc(NC(=O)C2CCN(S(=O)(=O)c3ccc4c(c3)NC(=O)C(C)S4)CC2)cc1 (stereo unspecified) | inconclusive [cytotoxic, single point] | 
12 | O=C(Nc1cccnc1)c1cn(-c2ccccc2)nc1-c1cccs1 | inactive | 
13 | CN(CC(=O)Nc1ccc(F)cc1)CC(=O)Nc1ccc(Cl)c(S(=O)(=O)N2CCOCC2)c1 | inconclusive [cytotoxic, single point] | 
14 | NS(=O)(=O)c1ccc(Nc2nc(-c3ccc(O)cc3)cs2)cc1 | inconclusive [cytotoxic, single point] | 
15 | COc1ccc(-c2nc3c4ccccc4ccn3c2Cc2ccccc2C(F)(F)F)cc1OC | inconclusive [cytotoxic, single point] | 
16 | CCN(CC)CCN(C(=O)CCS(=O)(=O)c1ccccc1)c1nc2cc(C)cc(C)c2s1 | inconclusive [cytotoxic, single point] | 
17 | CC(=O)N1N=C(c2ccccc2)OC1(C)CC(=O)Nc1ccccc1 (stereo unspecified) | inactive | 
18 | OCCN1CCN(Cc2cc(Cl)c3cccnc3c2O)CC1 | active: 5.01 µM | 
19 | Cc1ccc(-c2cc(C(F)F)nc(NCC3CCCO3)n2)cc1 (stereo unspecified) | inactive | 
20 | CCOC(=O)N1CCN(C(=O)C(CC)n2nc(C)c3sc4ccccc4c3c2=O)CC1 (stereo unspecified) | inconclusive [rising, single point] | 
21 | c1cc(C2CCN(Cc3nc(-c4ccc5c(c4)OCO5)no3)CC2)ccn1 | inconclusive [cytotoxic, single point] | 
22 | COc1ccc(C(C)(O)c2nc(-c3ccccc3C)cs2)cc1 (stereo unspecified) | inconclusive [cytotoxic, partial curve] | 
23 | COC(=O)c1ccc(NC(=S)NCCc2ccccc2C)cc1 | inconclusive [cytotoxic, single point] | 
24 | CCc1nc2c(cnn2-c2ccc(Cl)cc2)c(=O)n1-c1ccc(OC)cc1 | inconclusive [cytotoxic, single point] | 

Row | Compound | Potency | activity, negative = less viability
25 | COc1ccc(NC(=O)c2ccc3c(c2)CCN3S(=O)(=O)c2ccccc2)cc1 | inactive | 
26 | OC(c1ccc2ccccc2c1)c1ncc(-c2ccc(C(F)(F)F)cc2)[nH]1 (stereo unspecified) | inconclusive [cytotoxic, single point] | 
27 | NC(=O)CC(NC(=O)Cc1ccc(Br)cc1)c1ccc(NCc2ccc(F)c(F)c2)c([N+](=O)[O-])c1 (stereo unspecified) | inconclusive [cytotoxic, single point] | 
28 | Cc1ccc(-c2cc(C(=O)Nc3cccnc3)c3ccccc3n2)o1 | inconclusive [cytotoxic, single point] | 
29 | COc1ccc(F)cc1-c1cc(C(=O)NC2CCCCC2)[nH]n1 |  | inconclusive: 17.8%
30 | CCOc1ccccc1N1CCN(C(=O)c2ccc3[nH]c4c(c3c2)CCCC4)CC1 | inconclusive [cytotoxic, single point] | 
31 | CCOC(=O)c1c(CN(CC)CC)n(C)c2cc(Br)c(O)cc12 | inactive | 
32 | O=C(CNc1cccc2ccccc12)N/N=C/c1ccccn1 | inconclusive [cytotoxic, full curve, poor fit] | 
33 | CSc1ccc(/C=C/C(=O)Nc2ccccc2)cc1 | inconclusive [cytotoxic, single point] | 
34 | CNc1ccc(-c2cccc(C(C)=O)c2)cn1 | inconclusive [cytotoxic, single point] | 
35 | COc1ccc(OCCNC(=O)C2(C)CCN2Cc2ccc3ccccc3c2)cc1 (stereo unspecified) | inconclusive [cytotoxic, single point] | 
36 | COc1ccc(/C=C/C(=O)OCC(=O)Nc2ccc(Cl)c(S(=O)(=O)N(C)C)c2)cc1OC | inactive | 
37 | CC1=NN(c2ccccc2)C(=O)/C1=C\c1ccc(Oc2ccc([N+](=O)[O-])cc2[N+](=O)[O-])cc1 | active: 20.6 µM | 
38 | c1ccc(-c2nc(-c3ccccn3)no2)cc1 | active: 12.6 µM | 
39 | O=S(=O)(c1cccc(Cl)c1)N1CCN(c2nc(-c3cccs3)nc3ccccc23)CC1 | inconclusive [rising, partial curve, poor fit] | 
40 | CCCCOc1ccc(CSC2=NCCN2)cc1[N+](=O)[O-] | inconclusive [cytotoxic, single point] | 
41 | COc1ccc(OC)c(NC(=O)Cc2coc3ccc(C)cc23)c1 | inactive | 
42 | Cc1cc(SCC(=O)c2ccccc2)nc(=O)[nH]1 | inconclusive [cytotoxic, single point] | 
43 | O=C(N/N=C/c1ccccc1)c1ccc(CN2C(=O)c3cccc4cccc2c34)cc1 | active: 20.6 µM | 
44 | COc1ccc(OC)c(S(=O)(=O)Nc2cnc3ccccc3c2)c1 | inconclusive [cytotoxic, partial curve] | 
45 | CCc1nc2c(OCc3ccccc3)cccn2c1N(C)C(C)=O | inconclusive [rising, partial curve] | 
46 | CC(/C=N/NC(=O)c1cc(C(C)(C)C)[nH]n1)=C\c1ccccc1 | inconclusive [cytotoxic, partial curve] | 
47 | C=COC(=O)NC1CCc2cc(OC)c(OC)c(OC)c2-c2ccc(SC)c(=O)cc21 (stereo unspecified) | active: 0.184 µM | 
48 | CC/C(=C\c1ccc(N(C)C)cc1)c1ccncc1 | inconclusive [cytotoxic, single point] | 

Row | Compound | Potency | activity, negative = less viability
49 | Cc1ccc(Cn2c(C(=O)NCCCN3CCOCC3)cc3sccc32)cc1 | active: 15.8 µM | 
50 | CCOc1cccc2sc(N(CCCN(C)C)C(=O)c3ccc(C(=O)c4ccccc4)cc3)nc12 | active: 25.9 µM | 
51 | CN(C)CCN(C)Cc1c2ccccc2c(CN(C)CCN(C)C)c2ccccc12 | inconclusive [cytotoxic, single point] | 
52 | Cc1ccc([N+](=O)[O-])cc1NC(=S)NC(=O)CC(C)(C)C | inconclusive [cytotoxic, single point] | 
53 | N#C/C=C/C(=C\Nc1ccc(Cl)cc1)S(=O)(=O)c1ccccc1 |  | inconclusive: -0.429% [cytotoxic]
54 | CCOC(=O)C1CCCN(C(=O)c2cc(-c3cccs3)oc2C)CC1 (stereo unspecified) | inactive | 
55 | O=C(O)/C=C/C(=O)NNc1ccc([N+](=O)[O-])cc1 | inconclusive [cytotoxic, partial curve] | 
56 | COc1ccccc1NS(=O)(=O)c1cc(NC(=O)c2ccc(Cl)nc2)ccc1Cl | inconclusive [cytotoxic, single point] | 
57 | Cc1nnnn1/C(=C\c1ccccc1)C(=O)OCC(=O)N1CC2(C)CC1CC(C)(C)C2 (stereo unspecified) | active: 23.1 µM | 
58 | O=C(CCc1ccccc1)NNC(=O)c1ccccn1 | inconclusive [cytotoxic, partial curve] | 
59 | CCN(CC)C(=O)CN(C)S(=O)(=O)c1cccc2nsnc12 | inconclusive [cytotoxic, full curve, poor fit] | 
60 | CC(=O)C1=CCC(c2ccccc2F)N(S(=O)(=O)c2ccc(C)cc2)C1 (stereo unspecified) | inconclusive [cytotoxic, single point] | 
61 | CCn1c(SCC(=O)Nc2nc(-c3ccc(C)cc3)cs2)nnc1-c1ccccc1O | inconclusive [cytotoxic, single point] | 
62 | CN1CCN(C2=Cc3ccccc3Sc3cc(F)c(F)cc32)CC1 | inconclusive [cytotoxic, single point] | 
63 | C/C(Cn1nnc([N+](=O)[O-])n1)=N\NC(=O)c1cccc(Cl)c1 | inconclusive [cytotoxic, single point] | 
64 | Cc1cc(N2CCN(c3nc(-c4ccc([N+](=O)[O-])cc4)cs3)CC2)c2ccccc2n1 | active: 18.4 µM | 
65 | CCCCCCCn1c(=O)c(C(=O)OC)c(N)c2ccccc21 | inconclusive [cytotoxic, single point] | 
66 | Cc1scc(C(=O)NCc2ccco2)c1-c1ccccc1 | inconclusive [cytotoxic, single point] | 
67 | CC(NC(=O)C(C)N1c2cccc3cccc(c23)S1(=O)=O)c1ccccc1 (stereo unspecified) | inactive | 
68 | CN1CCN(c2ccc(CNC(=O)c3cc4ccccc4o3)cc2)CC1 | inactive | 
69 | O=C(/C=C/c1ccnc2ccccc12)c1cccs1 | active: 18.4 µM | 
70 | COc1ccccc1NC(=S)NC(NC(=O)C(C)C)C(Cl)(Cl)Cl (stereo unspecified) | inconclusive [cytotoxic, single point] | 
71 | CCc1nnc(NC(=O)CSc2nc3ccccc3c(=O)n2CCCOC)s1 | inconclusive [cytotoxic, single point] | 
